Sequences and labels used below:
T1: RBFOX1 RRM (Homo sapiens, UniProt Q9NWB1 109-208)
T1 sequence: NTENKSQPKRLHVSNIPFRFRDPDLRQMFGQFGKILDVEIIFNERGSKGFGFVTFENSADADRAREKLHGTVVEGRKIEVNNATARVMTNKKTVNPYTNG

B1: CGACUGA (DNA:RNA)
RNA: GGGAGACCGGAAUUCAGAUUGUCCCGACUGAUUAAAUCCCGUCGUAGCCACCA
DNA 1: CAATCTGAATTCCGGTCTCCC
DNA 2: TGGTGGCTACGACGGGATT
B2: AUAACGU (DNA:RNA)
RNA: B1 RNA with C25A, G26U, C28A, U29C, A31U
DNA 1: CAATCTGAATTCCGGTCTCCC
DNA 2: TGGTGGCTACGACGGGATT
B3: GUACAAC (DNA:RNA)
RNA: B1 RNA with C25G, G26U, U29A, G30A, A31C
DNA 1: CAATCTGAATTCCGGTCTCCC
DNA 2: TGGTGGCTACGACGGGATT
B4: AUGCAUA (DNA:RNA)
RNA: B1 RNA with C25A, G26U, A27G, U29A, G30U
DNA 1: CAATCTGAATTCCGGTCTCCC
DNA 2: TGGTGGCTACGACGGGATT
B5: CUCCGGU (DNA:RNA)
RNA: B1 RNA with G26U, A27C, U29G, A31U
DNA 1: CAATCTGAATTCCGGTCTCCC
DNA 2: TGGTGGCTACGACGGGATT
B6: GACUGCA (DNA:RNA)
RNA: B1 RNA with C25G, G26A, A27C, C28U, U29G, G30C
DNA 1: CAATCTGAATTCCGGTCTCCC
DNA 2: TGGTGGCTACGACGGGATT
B7: GUAGAAU (DNA:RNA)
RNA: B1 RNA with C25G, G26U, C28G, U29A, G30A, A31U
DNA 1: CAATCTGAATTCCGGTCTCCC
DNA 2: TGGTGGCTACGACGGGATT
B8: GGCAUGA (DNA:RNA)
RNA: B1 RNA with C25G, A27C, C28A
DNA 1: CAATCTGAATTCCGGTCTCCC
DNA 2: TGGTGGCTACGACGGGATT
B9: CAAAUCA (DNA:RNA)
RNA: B1 RNA with G26A, C28A, G30C
DNA 1: CAATCTGAATTCCGGTCTCCC
DNA 2: TGGTGGCTACGACGGGATT
B10: UAUACCC (DNA:RNA)
RNA: GGGAGACCGGAAUUCAGAUUGUCCUAUACCCUUAAAUCCCGUCGUAGCCACCA
DNA 1: CAATCTGAATTCCGGTCTCCC
DNA 2: TGGTGGCTACGACGGGATT
B11: GAGCUGC (DNA:RNA)
RNA: B1 RNA with C25G, G26A, A27G, A31C
DNA 1: CAATCTGAATTCCGGTCTCCC
DNA 2: TGGTGGCTACGACGGGATT
B12: AAAAGGG (DNA:RNA)
RNA: B1 RNA with C25A, G26A, C28A, U29G, A31G
DNA 1: CAATCTGAATTCCGGTCTCCC
DNA 2: TGGTGGCTACGACGGGATT
B13: UUGUUCC (DNA:RNA)
RNA: B10 RNA with A26U, U27G, A28U, C29U
DNA 1: CAATCTGAATTCCGGTCTCCC
DNA 2: TGGTGGCTACGACGGGATT
B14: GAGGCUG (DNA:RNA)
RNA: B10 RNA with U25G, U27G, A28G, C30U, C31G
DNA 1: CAATCTGAATTCCGGTCTCCC
DNA 2: TGGTGGCTACGACGGGATT
B15: CCUGUGA (DNA:RNA)
RNA: B1 RNA with G26C, A27U, C28G
DNA 1: CAATCTGAATTCCGGTCTCCC
DNA 2: TGGTGGCTACGACGGGATT
B16: CCAAACC (DNA:RNA)
RNA: B10 RNA with U25C, A26C, U27A, C29A
DNA 1: CAATCTGAATTCCGGTCTCCC
DNA 2: TGGTGGCTACGACGGGATT
B17: CACGGUC (DNA:RNA)
RNA: B10 RNA with U25C, U27C, A28G, C29G, C30U
DNA 1: CAATCTGAATTCCGGTCTCCC
DNA 2: TGGTGGCTACGACGGGATT
B18: CUUAAUC (DNA:RNA)
RNA: B10 RNA with U25C, A26U, C29A, C30U
DNA 1: CAATCTGAATTCCGGTCTCCC
DNA 2: TGGTGGCTACGACGGGATT
B19: AUCAGCU (DNA:RNA)
RNA: B10 RNA with U25A, A26U, U27C, C29G, C31U
DNA 1: CAATCTGAATTCCGGTCTCCC
DNA 2: TGGTGGCTACGACGGGATT
B20: UUAAGGA (DNA:RNA)
RNA: B1 RNA with C25U, G26U, C28A, U29G
DNA 1: CAATCTGAATTCCGGTCTCCC
DNA 2: TGGTGGCTACGACGGGATT
B21: AAUCCAC (DNA:RNA)
RNA: B10 RNA with U25A, A28C, C30A
DNA 1: CAATCTGAATTCCGGTCTCCC
DNA 2: TGGTGGCTACGACGGGATT
B22: UCGGGCU (DNA:RNA)
RNA: B10 RNA with A26C, U27G, A28G, C29G, C31U
DNA 1: CAATCTGAATTCCGGTCTCCC
DNA 2: TGGTGGCTACGACGGGATT
B23: CUAUUUG (DNA:RNA)
RNA: B1 RNA with G26U, C28U, G30U, A31G
DNA 1: CAATCTGAATTCCGGTCTCCC
DNA 2: TGGTGGCTACGACGGGATT
B24: GGUCUUU (DNA:RNA)
RNA: B1 RNA with C25G, A27U, G30U, A31U
DNA 1: CAATCTGAATTCCGGTCTCCC
DNA 2: TGGTGGCTACGACGGGATT
B25: CGGAACC (DNA:RNA)
RNA: B10 RNA with U25C, A26G, U27G, C29A
DNA 1: CAATCTGAATTCCGGTCTCCC
DNA 2: TGGTGGCTACGACGGGATT
B26: GUGGCCU (DNA:RNA)
RNA: B10 RNA with U25G, A26U, U27G, A28G, C31U
DNA 1: CAATCTGAATTCCGGTCTCCC
DNA 2: TGGTGGCTACGACGGGATT
B27: ACCUUUG (DNA:RNA)
RNA: B1 RNA with C25A, G26C, A27C, C28U, G30U, A31G
DNA 1: CAATCTGAATTCCGGTCTCCC
DNA 2: TGGTGGCTACGACGGGATT
B28: UUUCUCC (DNA:RNA)
RNA: B10 RNA with A26U, A28C, C29U
DNA 1: CAATCTGAATTCCGGTCTCCC
DNA 2: TGGTGGCTACGACGGGATT
B29: CGAGCGU (DNA:RNA)
RNA: B1 RNA with C28G, U29C, A31U
DNA 1: CAATCTGAATTCCGGTCTCCC
DNA 2: TGGTGGCTACGACGGGATT
B30: UCCAGGC (DNA:RNA)
RNA: B10 RNA with A26C, U27C, C29G, C30G
DNA 1: CAATCTGAATTCCGGTCTCCC
DNA 2: TGGTGGCTACGACGGGATT
B31: AGCGAGG (DNA:RNA)
RNA: B1 RNA with C25A, A27C, C28G, U29A, A31G
DNA 1: CAATCTGAATTCCGGTCTCCC
DNA 2: TGGTGGCTACGACGGGATT

The record followed here is article PMC9911399, “Two distinct binding modes provide the RNA-binding protein RbFox with extraordinary sequence specificity”.

Numbering of substitutions follows the chain as printed; changes in the protein carry UniProt numbers. This is one part of the list.

For the assay, the target named is T1, RBFOX1 RRM. The experiment in a line: EMSA; HiTS-Eq, 1 nM pool, 10 min; buffer printed only for the single-RNA assays: 10 mM Tris pH 7.5, 150 mM NaCl, 3.4 mM EDTA, 0.001% NP-40, 30 C. The settings on record: tags: His6 N-terminal (pET28a); label: 5' 32P. In short, it runs like this: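 Purified wild-type or mutant RbFox RRM at increasing concentrations was equilibrated with 1 nM of 5′-radiolabelled RNA carrying 7 randomized nucleotides for 10 min in 50 µL. Unbound RNA was separated by 8% native PAGE and sequenced. Relative association constants came from read-count changes of each RNA species compared with the control reaction, normalised to the cognate motif.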
(A gel shift assay detects complexes by their altered migration in electrophoresis.)
B1: the binding signal is 0.0185 KA relative to UGCAUGU.

Take B2: the binding signal is 0.00249 KA relative to UGCAUGU.

In the case of B3, the binding signal is 0.00266 KA relative to UGCAUGU.

In the case of B4, the binding signal is 0.00891 KA relative to UGCAUGU.

On to B5, for which the binding signal is 0.00418 KA relative to UGCAUGU.

In the case of B6, the binding signal is 0.0222 KA relative to UGCAUGU.

In the case of B7, the binding signal is 0.00717 KA relative to UGCAUGU.

For B8, the binding signal is 0.156 KA relative to UGCAUGU.

For B9, the binding signal is 0.00034 KA relative to UGCAUGU.

With B10, the binding signal was 0.00151 KA relative to UGCAUGU.

Regarding B11, the binding signal is 0.0153 KA relative to UGCAUGU.

As to B12, the binding signal is 0.00432 KA relative to UGCAUGU.

For B13, the binding signal is 0.0218 KA relative to UGCAUGU.

For the molecule B14, the binding signal was 0.0185 KA relative to UGCAUGU.

In the case of B15, the binding signal was 0.014 KA relative to UGCAUGU.

As to B16, the binding signal is 0.00286 KA relative to UGCAUGU.

With B17, the binding signal was 0.0125 KA relative to UGCAUGU.

For the molecule B18, the binding signal was 0.0071 KA relative to UGCAUGU.

Take B19: the binding signal was 0.00315 KA relative to UGCAUGU.

For B20, the binding signal was 0.000993 KA relative to UGCAUGU.

Take B21: the binding signal is 0.000933 KA relative to UGCAUGU.

Take B22: the binding signal is 0.00844 KA relative to UGCAUGU.

With B23, the binding signal is 0.014 KA relative to UGCAUGU.

Consider B24, for which the binding signal is 0.0123 KA relative to UGCAUGU.

In the case of B25, the binding signal is 0.0199 KA relative to UGCAUGU.

B26: the binding signal is 0.0158 KA relative to UGCAUGU.

As for B27, the binding signal is 0.0107 KA relative to UGCAUGU.

On to B28, for which the binding signal was 0.0126 KA relative to UGCAUGU.

For the molecule B29, the binding signal was 0.0145 KA relative to UGCAUGU.

Take B30: the binding signal was 0.0102 KA relative to UGCAUGU.

Turning to B31, the binding signal is 0.0199 KA relative to UGCAUGU.
